Some results were stated once for a whole list of compounds, not compound by compound. Part of at least one peptide drawing is inferred or uncertain, most often the ends. For at least one compound, name, drawing or mass did not settle the structure. *1 amine or outer side, *2 acyl side, *3 side chain or, on linkers, in order; H or OH if unused. Where a SMILES comes first, the peptide text is derived from it. Side-chain parts run from the residue outwards. [ ]: non-standard residue; d: D form. The star is where a group is joined. X1 = O=C(CCCCCCCCCCCCCCCc1nnn[nH]1)NS(=O)(=O)CCCC(=O)*; γGlu = O=C(O)[C@H](CCC(=O)[*:2])N[*:1]; AEEA = NCCOCCOCC(=O)O; Aib = CC(C)(N)C(=O)O; GABA = NCCCC(=O)O
Assay: Alpha-helix content by circular dichroism (CD) spectroscopy
Format: physicochemical
Conditions: for alpha-helical content: 5 uM concentration, estimated from delta epsilon at 222 nm (−1 M^−1 cm^−1 corresponds to 10%); for delta epsilon at 222 nm: 5 uM peptide in 10 mM Tris/ClO4 pH 8.0, far-UV CD

Row | Structure (SMILES) | alpha-helical content | delta epsilon at 222 nm [M^−1 cm^−1]
1 | CC[C@H](C)[C@H](NC(=O)[C@H](Cc1ccccc1)NC(=O)[C@H](CCC(=O)O)NC(=O)[C@H](CCCNC(=N)N)NC(=O)[C@H](C)NC(=O)[C@H](C)NC(=O)[C@H](CCC(N)=O)NC(=O)[C@H](CCC(=O)O)NC(=O)[C@H](CCC(=O)O)NC(=O)[C@H](CC(C)C)NC(=O)[C@H](Cc1ccc(O)cc1)NC(=O)[C@H](CO)NC(=O)[C@H](CO)NC(=O)[C@@H](NC(=O)[C@H](CC(=O)O)NC(=O)[C@H](CO)NC(=O)[C@@H](NC(=O)[C@H](Cc1ccccc1)NC(=O)[C@@H](NC(=O)CNC(=O)[C@H](CCC(=O)O)NC(=O)C(C)(C)NC(=O)[C@@H](N)Cc1c[nH]cn1)[C@@H](C)O)[C@@H](C)O)C(C)C)C(=O)N[C@@H](CCC(=O)O)C(=O)N[C@@H](Cc1c[nH]c2ccccc12)C(=O)N[C@@H](CC(C)C)C(=O)N[C@H](C(=O)N[C@@H](CCCCN)C(=O)NCC(=O)N[C@@H](CCCNC(=N)N)C(=O)N1CCC[C@H]1C(=O)N[C@@H](CCCCNC(=O)COCCOCCNC(=O)CC[C@H](NC(=O)CC[C@H](NC(=O)CCCNC(=O)CCCS(=O)(=O)NC(=O)CCCCCCCCCCCCCCCc1nnn[nH]1)C(=O)O)C(=O)O)C(=O)O)C(C)C [Example 14, [Aib8,Glu22,Arg26,Glu30,Pro37]GLP-1-(7-37)Lys [2-(2-{2-[4-Carboxy-4-(4-carboxy-4-{4-[4-(16-1H-tetrazol-5-yl-hexadecanoylsulfamoyl)butyrylamino]butyrylamino}butyrylamino)butyrylamino]ethoxy}ethoxy)acetyl]] (H-H[Aib]EGTFTSDVSSYLEEQAAREFIEWLVKGRPK([AEEA-γGlu-γGlu-GABA-X1])-OH; N-terminus and C-terminus assumed) | 20-36% | −2.0 to −3.6
2 | CC[C@H](C)[C@H](NC(=O)[C@H](Cc1cccc(C(F)(F)F)c1)NC(=O)[C@H](CCC(=O)O)NC(=O)[C@H](CCCNC(=N)N)NC(=O)[C@H](C)NC(=O)[C@H](C)NC(=O)[C@H](CCC(N)=O)NC(=O)[C@H](CCC(=O)O)NC(=O)[C@H](CCC(=O)O)NC(=O)[C@H](CC(C)C)NC(=O)[C@H](Cc1ccc(O)cc1)NC(=O)[C@H](CO)NC(=O)[C@H](CO)NC(=O)[C@@H](NC(=O)[C@H](CC(=O)O)NC(=O)[C@H](CO)NC(=O)[C@@H](NC(=O)[C@H](Cc1ccccc1)NC(=O)[C@@H](NC(=O)CNC(=O)[C@H](CCC(=O)O)NC(=O)[C@H](C)NC(=O)CCc1c[nH]cn1)[C@@H](C)O)[C@@H](C)O)C(C)C)C(=O)N[C@@H](C)C(=O)N[C@@H](Cc1c[nH]c2ccccc12)C(=O)N[C@@H](CC(C)C)C(=O)N[C@H](C(=O)N[C@@H](CCCNC(=N)N)C(=O)NCC(=O)N[C@@H](CCCNC(=N)N)C(=O)N[C@@H](CCCCNC(=O)COCCOCCNC(=O)COCCOCCNC(=O)C[C@@H](NC(=O)C1CCN(C(=O)CCCCCCCCCCCCCCCCC(=O)O)CC1)C(=O)O)C(N)=O)C(C)C [Example 3, N-epsilon37-[2-(2-[2-(2-[2-(2-((R)-3-[1-(17-Carboxyheptadecanoyl)piperidin-4-ylcarbonylamino]3-carboxypropionylamino)ethoxy)ethoxy]acetylamino)ethoxy]ethoxy)acetyl][DesaminoHis 7,Glu22,Arg26,Arg34,Phe(m-CF3)28]GLP-1-(7-37)amide] | 37-60% | −3.7 to −6.0
3 | CC[C@H](C)[C@H](NC(=O)[C@H](Cc1ccccc1)NC(=O)[C@H](CCC(=O)O)NC(=O)[C@H](CCCNC(=N)N)NC(=O)[C@H](C)NC(=O)[C@H](C)NC(=O)[C@H](CCC(N)=O)NC(=O)[C@H](CCC(=O)O)NC(=O)[C@H](CCC(=O)O)NC(=O)[C@H](CC(C)C)NC(=O)[C@H](Cc1ccc(O)cc1)NC(=O)[C@H](CO)NC(=O)[C@H](CO)NC(=O)[C@@H](NC(=O)[C@H](CC(=O)O)NC(=O)[C@H](CO)NC(=O)[C@@H](NC(=O)[C@H](Cc1ccccc1)NC(=O)[C@@H](NC(=O)CNC(=O)[C@H](CCC(=O)O)NC(=O)C(C)(C)NC(=O)[C@@H](N)Cc1c[nH]cn1)[C@@H](C)O)[C@@H](C)O)C(C)C)C(=O)N[C@@H](C)C(=O)N[C@@H](Cc1c[nH]c2ccccc12)C(=O)N[C@@H](CC(C)C)C(=O)N[C@H](C(=O)N[C@@H](CCCNC(=N)N)C(=O)NCC(=O)N[C@@H](CCCNC(=N)N)C(=O)N[C@@H](CCCCNC(=O)COCCOCCNC(=O)CC[C@H](NC(=O)CC[C@H](NC(=O)CCCCCCCCCCCNC(=O)CCCS(=O)(=O)NC(=O)CCCCCCCCCCCCCCCc1nnn[nH]1)C(=O)O)C(=O)O)C(N)=O)C(C)C [Example 12, N-epsilon37-[2-(2-{2-[(S)-4-Carboxy-4-((S)-4-carboxy-4-{12-[4-(16-(1H-tetrazol-5-yl)hexadecanoylsulfamoyl)butyrylamino]dodecanoylamino}butyrylamino)butyrylamino]ethoxy}ethoxy)acetyl][Aib8,Glu22,Arg26,Arg34,Lys37]GLP-1-(7-37)amide] | 37-60% | −3.7 to −6.0
4 | CC[C@H](C)[C@H](NC(=O)[C@H](Cc1ccccc1)NC(=O)[C@H](CCC(=O)O)NC(=O)[C@H](CCCNC(=N)N)NC(=O)[C@H](C)NC(=O)[C@H](C)NC(=O)[C@H](CCC(N)=O)NC(=O)[C@H](CCC(=O)O)NC(=O)[C@H](CCC(=O)O)NC(=O)[C@H](CC(C)C)NC(=O)[C@H](Cc1ccc(O)cc1)NC(=O)[C@H](CO)NC(=O)[C@H](CO)NC(=O)[C@@H](NC(=O)[C@H](CC(=O)O)NC(=O)[C@H](CO)NC(=O)[C@@H](NC(=O)[C@H](Cc1ccccc1)NC(=O)[C@@H](NC(=O)CNC(=O)[C@H](CCC(=O)O)NC(=O)[C@H](C)NC(=O)CCc1c[nH]cn1)[C@@H](C)O)[C@@H](C)O)C(C)C)C(=O)N[C@@H](C)C(=O)N[C@@H](Cc1c[nH]c2ccccc12)C(=O)N[C@@H](CC(C)C)C(=O)N[C@H](C(=O)N[C@@H](CCCNC(=N)N)C(=O)NCC(=O)N[C@@H](CCCNC(=N)N)C(=O)N[C@@H](CCCCNC(=O)COCCOCCNC(=O)CC[C@H](NC(=O)CC[C@H](NC(=O)CCCCCCCCCCCNC(=O)CCCS(=O)(=O)NC(=O)CCCCCCCCCCCCCCCc1nnn[nH]1)C(=O)O)C(=O)O)C(N)=O)C(C)C [Example 13, N-epsilon37-[2-(2-{2-[(S)-4-Carboxy-4-((S)-4-carboxy-4-{12-[4-(16-(1H-tetrazol-5-yl)hexadecanoylsulfamoyl)butyrylamino]dodecanoylamino}butyrylamino)butyrylamino]ethoxy}ethoxy)acetyl][DesaminoHis7,Glu22,Arg26,Arg34,Lys37]GLP-1-(7-37)amide] | 37-60% | −3.7 to −6.0
5 | CC[C@H](C)[C@H](NC(=O)[C@H](Cc1ccccc1)NC(=O)[C@H](CCC(=O)O)NC(=O)[C@H](CCCNC(=N)N)NC(=O)[C@H](C)NC(=O)[C@H](C)NC(=O)[C@H](CCC(N)=O)NC(=O)[C@H](CCC(=O)O)NC(=O)[C@H](CCC(=O)O)NC(=O)[C@H](CC(C)C)NC(=O)[C@H](Cc1ccc(O)cc1)NC(=O)[C@H](CO)NC(=O)[C@H](CO)NC(=O)[C@@H](NC(=O)[C@H](CC(=O)O)NC(=O)[C@H](CO)NC(=O)[C@@H](NC(=O)[C@H](Cc1ccccc1)NC(=O)[C@@H](NC(=O)CNC(=O)[C@H](CCC(=O)O)NC(=O)[C@H](C)NC(=O)CCc1c[nH]cn1)[C@@H](C)O)[C@@H](C)O)C(C)C)C(=O)N[C@@H](C)C(=O)N[C@@H](Cc1c[nH]c2ccccc12)C(=O)N[C@@H](CC(C)C)C(=O)N[C@H](C(=O)N[C@@H](CCCNC(=N)N)C(=O)NCC(=O)N[C@@H](CCCNC(=N)N)C(=O)N[C@@H](CCCCNC(=O)COCCOCCNC(=O)COCCOCCNC(=O)CC[C@H](NC(=O)[C@H]1CC[C@H](CNC(=O)CCCCCCCCCCCCCCCCCCC(=O)O)CC1)C(=O)O)C(N)=O)C(C)C [Example 8, N-epsilon37-[2-(2-{2-[2-(2-{2-[(S)-4-Carboxy-4-({trans-4-[(19-carboxy-nonadecanoylamino)methyl]cyclohexanecarbonyl}amino)butyrylamino]ethoxy}ethoxy)acetylamino]ethoxy}ethoxy)acetyl][DesaminoHis7,Glu22,Arg26,Arg34,Lys37]GLP-1-(7-37)amide] | 37-60% | −3.7 to −6.0
6 | CC[C@H](C)[C@H](NC(=O)[C@H](Cc1ccccc1)NC(=O)[C@H](CCC(=O)O)NC(=O)[C@H](CCCNC(=N)N)NC(=O)[C@H](C)NC(=O)[C@H](C)NC(=O)[C@H](CCC(N)=O)NC(=O)[C@H](CCC(=O)O)NC(=O)[C@H](CCC(=O)O)NC(=O)[C@H](CC(C)C)NC(=O)[C@H](Cc1ccc(O)cc1)NC(=O)[C@H](CO)NC(=O)[C@H](CO)NC(=O)[C@@H](NC(=O)[C@H](CC(=O)O)NC(=O)[C@H](CO)NC(=O)[C@@H](NC(=O)[C@H](Cc1ccccc1)NC(=O)[C@@H](NC(=O)CNC(=O)[C@H](CCC(=O)O)NC(=O)C(C)(C)NC(=O)[C@@H](N)Cc1c[nH]cn1)[C@@H](C)O)[C@@H](C)O)C(C)C)C(=O)N[C@@H](C)C(=O)N[C@@H](Cc1c[nH]c2ccccc12)C(=O)N[C@@H](CC(C)C)C(=O)N[C@H](C(=O)N[C@@H](CCCNC(=N)N)C(=O)NCC(=O)N[C@@H](CCCNC(=N)N)C(=O)N[C@@H](CCCCNC(=O)COCCOCCNC(=O)COCCOCCNC(=O)CC[C@H](NC(=O)[C@H]1CC[C@H](CNC(=O)CCCCCCCCCCCCCCCCCCC(=O)O)CC1)C(=O)O)C(N)=O)C(C)C [Example 7, N-epsilon37-[2-(2-{2-[2-(2-{2-[(S)-4-Carboxy-4-({trans-4-[(19-carboxy-nonadecanoylamino)methyl]cyclohexanecarbonyl}amino)butyrylamino]ethoxy}ethoxy)acetylamino]ethoxy}ethoxy)acetyl][Aib8,Glu22,Arg26,Arg34,Lys37]GLP-1-(7-37)amide] | 37-60% | −3.7 to −6.0

Source: US9409966B2, “Glucagon-like peptide-1 derivatives and their pharmaceutical use” (priority 2007, dated 2016)
